Results from US12226427B2, “Treatment for gene reactivation” (YISSUM RESEARCH DEVELOPMENT COMPANY OF THE HEBREW …, priority 2018, dated 2025).

Key:
[1] = test system: FMR1; details: Bar-Nur et al., 2012; cited from earlier work
[2] = test system: FMR1; experiment: FMR1 reactivation in human FXS-NPC grafts transplanted in mouse brain; assay type: in vivo, C57BL/6 female mice; details: i.p. 15 mg/kg/day for 5 days
Procedure: FXS-iPSCs and edited FXS-iPSCs were differentiated into NPCs using dual SMAD inhibition, based on previously published protocols with modifications: Briefly, iPSC lines were seeded on Matrigel-coated plates (1×10^6 cells/well) in mTeSR medium with 10 μM ROCK inhibitor (Y27632). Differentiation was initiated by supplementing human embryonic stem cell media lacking FGF2 with 10 μM SB431542 (biogems) and 2.5 μM LDN-193189 (biogems) for 4 days. In the subsequent 5 days, medium was gradually replaced with N2 medium (DMEM/F12 supplemented with 1×N2 supplement, 50 U/ml penicillin (Biological Industries), 50 μg/ml streptomycin (Biological Industries), 1 mM glutamine, 0.2 mM ascorbic acid and 0.16% glucose) supplemented with 10 μM SB431542 and 2.5 μM LDN-193189. […]
For RNA extraction, treated and untreated brains were excised and the grafts inside the target structures were dissected. Quantitative RT-PCR analysis of human-specific primers for the GAPDH gene mRNA confirmed the existence of human GAPDH mRNA only in grafted regions, but not in normal murine brain structures (FIG. 4F).

[3] = test system: FMR1 promoter; details: 5 intraperitoneal injections of 15 mg/kg/day
[4] = test system: FMR1
[5] = test system: FMRP; experiment: Western blot analysis of FMRP expression in FXS-NPCs; assay type: cell-based, human; details: 14 and 35 days after treatment withdrawal
Procedure: Cell protein lysates were prepared using sample buffer composed of 100 mM Tris pH 6.8, 200 mM DTT, 4% SDS, 0.2% bromophenol blue and 20% glycerol. 10% polyacrylamide gel was used for protein separation. Gel was transferred to a nitrocellulose membrane. Following blocking with 5% nonfat dry milk in PBS for 1 hour, the membranes were incubated with mouse anti-FMRP antibody (YF-MA10356, Abfrontier) and rabbit anti GAPDH antibodies (2118, Cell Signaling). Following three washes the membranes were incubated with horseradish peroxidase-conjugated anti-rabbit and anti-mouse secondary antibodies (Jackson ImmunoResearch Laboratories).

[6] = test system: FMR1; details: FXS-NPCs
[7] = test system: FMR1; experiment: RT-PCR of FMR1 expression in terminally differentiated FXS-neurons; assay type: cell-based, human; details: 48 hours of treatment
Excerpt: (§1) GAPDH was used for normalization.

[8] = test system: FMR1; experiment: RT-PCR of FMR1 expression in FXS transplant-derived cell culture; assay type: cell-based, human; details: DZNep 25 uM versus DMSO, 4 days
Procedure: as §1
FXS-transplants were dissociated into small cell aggregates. Following further trypsinization, dissociated cells were plated on gelatin coated 6-well plates.

Nc1ncn([C@@H]2O[C@H](CO)[C@@H](O)[C@H]2O)c(=O)n1 [5-azacytidine]
Restoration of FMR1 expression in FXS-iPSCs and their neural derivatives [1]: able to restore FMR1 expression

Nc1ncn([C@H]2C[C@H](O)[C@@H](CO)O2)c(=O)n1 [5-azadC, 5-aza-2-deoxycytidine]
Human FMRP in FXS-NPC grafts (immunofluorescence) [2]: FMRP reactivation | Demethylation of the FMR1 promoter in FXS-transplants [3]: efficiently demethylate the FMR1 promoter | Course of FMR1 mRNA expression after treatment withdrawal in FXS-transplants ([4]; 15 mg/kg/day, 5 injections): continued to increase during the first 6 days | Effective dose in mice ([4]; 5-azadC alone): 5 to 15 mg/kg/day | FMR1 expression in FXS-transplants, RNA and protein levels ([4]; 5 intraperitoneal injections of 15 mg/kg/day): robustly induce FMR1 expression | Time FMR1 mRNA expression remained stable after the end of treatment ([4]; FXS-transplants, without re-silencing): at least 30 days | FMRP expression (western blot) after treatment withdrawal [5]: detectable in similar levels | FMR1 mRNA maximum, percent of normal cells ([6]; 6 days after the drug was removed): 60-70% | Maintenance of FMR1 expression after treatment withdrawal ([6]; up to 30 days after the end of the treatment): did not show any decline in FMR1 expression | FMR1 expression in terminally differentiated neuronal cultures [7]: modest levels of FMR1 expression

Nc1nccc2c1ncn2C1C=C(CO)C(O)C1O (stereo not drawn) [DZNep, 3-Deazaneoplanocin A]
FMR1 mRNA in cells of 5-azadC treated FXS transplants after subsequent in vitro treatment [8]: higher levels of FMR1 mRNA
